From PubChem BioAssay AID1346428 (National Center for Advancing Translational Sciences (NCATS), 2018)
Several values for one entry are separate records, joined by “and”; a condition that tells them apart may be missing. Equal entries are not always repeated. The campaign covered roughly 48,000 compounds. About 1,200 (2.5%) were called active. Inconclusive results (about 2%) are left out.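 How the source made its calls: active means activation of at least 60% and not above a set upper limit (about 1 call in 100 departs from these limits); inconclusive means activation of 40% to 60%, or above that upper limit; inactive means activation under 40%.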 Some of the results follow.

target: Probable G-protein coupled receptor 32 (Homo sapiens) (UniProt O75388); experiment: qHTS for Agonists of Human Resolvin D1 Receptor DRV1; settings: CHO-K1 GPR32 beta-arrestin PathHunter luminescence, 90 min; at 76.9 µM; active compounds read high; zero percent set by DMSO-only wells; further: 0% is about no effect
In short: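 Luminescent readout of beta-Gal complementation quantifies ligand-induced beta-arrestin association with GPR32 in CHO-K1 cells; 90 min compound incubation at 37 °C, detection 1 h at room temperature.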

Chain of UniProt O75388 (O75388 whole entry, looked up): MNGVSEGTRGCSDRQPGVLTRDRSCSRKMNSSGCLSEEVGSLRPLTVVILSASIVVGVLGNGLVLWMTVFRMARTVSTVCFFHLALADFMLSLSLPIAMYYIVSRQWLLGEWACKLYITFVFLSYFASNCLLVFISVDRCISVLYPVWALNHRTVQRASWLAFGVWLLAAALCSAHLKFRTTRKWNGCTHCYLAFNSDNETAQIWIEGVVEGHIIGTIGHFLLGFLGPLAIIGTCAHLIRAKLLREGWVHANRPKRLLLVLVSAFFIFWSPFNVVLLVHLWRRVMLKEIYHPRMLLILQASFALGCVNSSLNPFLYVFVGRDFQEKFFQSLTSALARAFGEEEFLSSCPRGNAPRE

activation, active:
COc1cc(C2c3c(-c4ccc(C)cc4)n[nH]c3C(=O)N2c2ccc(F)cc2)ccc1O (stereo not drawn) 104%

activation, inactive:
CCN(CC)c1nc2c(S(=O)(=O)c3cccc(Cl)c3)nnn2c2ccsc12 -28.7%, CCC(C)NC(=O)CSc1nc2c(sc3ccccc32)c(=O)n1CCc1ccc(OC)c(OC)c1 (stereo not drawn) -10.3%, CCn1cc(C(=O)NCc2ccc(C)cc2)c(=O)c2cc(S(=O)(=O)N(C)C3CCCCC3)ccc21 28.2%, CCc1ccc(CN(Cc2ccco2)C(=O)COc2ccc(Cl)c(C)c2)cc1 -22.9%, Cc1cccc(OCC(O)Cn2c(=N)n(CCN3CCCCC3)c3ccccc32)c1 (stereo not drawn) 17.6%, N#C/C(=C/c1cn(Cc2ccccc2Cl)c2ccccc12)C(=O)Nc1cccc(Cl)c1 -4.56%, COc1ccc(OC)c(C2C(C(=O)N3CCCCC3)=C(C)Nc3nc4ccccc4n32)c1 (stereo not drawn) 0.0763%, COc1cc(NC(=O)N2CCC3(CC2)Nc2cc(F)ccc2-n2cccc23)cc(OC)c1OC -8.52%, CC(C)(C)c1ccc(CN(Cc2ccco2)c2cnc(S(C)(=O)=O)nc2C(=O)Nc2ccc(F)cc2)cc1 -25.9%, Cc1cc(C)c(NC(=O)Cn2c(=O)nc(-c3ccccc3)c3cc(Cl)ccc32)c(C)c1 -10.9%, Cc1ccccc1CN1c2ccccc2-c2nc(SCC(N)=O)ncc2S1(=O)=O -12.2%, Cc1cc(=O)n(Cc2cccc(F)c2)c2c1c(C)nn2-c1cccc(F)c1 -7.56%, CCc1cccc(CC)c1-n1nnc2c(sc3nc(C)cc(C)c32)c1=O -10.7%, Clc1ccc(OCc2nc3ccccc3n2Cc2ccccc2)c(Cl)c1 -2.45%, CCc1ccc(-c2nn(CC(=O)Nc3ccccc3C)c3c2cnc2ccc(C)cc23)cc1 -4.75%, O=C(CSc1nc(-c2ccc(F)cc2)[nH]c1-c1ccccc1)Nc1ccccc1 12.3%, COc1cc(NC(=O)c2nc3ccccc3nc2N2CCCCC2)cc(OC)c1OC -16.8%, COc1cc(/C=C/c2nc(C#N)c(NCCc3ccccc3)o2)cc(OC)c1OC -24.9%, Cc1ccc(C)c(NC(=O)c2nn(C)c3c2CS(=O)(=O)c2ccccc2-3)c1 -2.21%, CC(C)(C)C1CCc2c(sc3nnn(CCOc4ccccc4)c(=O)c23)C1 (stereo not drawn) 3.27%, Cc1ccc(-c2nn(CC(=O)NC3CCCC3)c3c2cnc2ccccc23)cc1 -5.65%, Cc1ccc(C)c(NC(=O)CN2C(=O)c3cccnc3Oc3ccc(C)cc32)c1 -29.3%, Cc1cccc(-c2nc(CSCC(=O)NCCc3ccc(Cl)cc3)c(C)o2)c1 6.96%, Cc1ccc(CNC(=O)c2ccc(-c3nc(CS(=O)c4ccccc4)c(C)o3)cc2)cc1 (stereo not drawn) 13.3%, COCCn1ccc2c(OCC(=O)Nc3ccccc3F)cccc2c1=O 48.2%, O=C1N(c2ccccc2)c2ccccc2C1(Cc1ccncc1)Cc1ccncc1 5.54% and -4.94%, CCOC(=O)N1CCc2c(sc3c2c(=O)n(CCc2ccccc2)c(=O)n3CC(=O)Nc2cccc(C)c2)C1 -10.7%, CCOc1ccccc1NC(=O)Cn1c(=O)n(Cc2ccco2)c(=O)c2ccc(C(=O)NC3CCCC3)cc21 -0.938%, Cc1cc(F)ccc1NC1(c2ccccc2)C(=O)c2ccccc2C1=O -74.1%, CCc1ccccc1NC(=O)C1CCN(C(=O)N2CC(C)Oc3ccc(Cl)cc32)CC1 (stereo not drawn) -8.53%, COc1ccccc1NC(=O)N1CCC(CN2CCc3ccccc3C2)CC1 -12.2%, COc1ccc(Cl)cc1NC(=O)Cn1nc(Cc2ccncc2)c2ccccc2c1=O -16.2%, CCn1cc(C(=O)NCCc2ccc(OC)c(OC)c2)c(=O)c2cc(S(=O)(=O)N3CCC(C)CC3)ccc21 -36.8%, CCOc1ccc(-n2c(SCC(=O)N3CCCCCC3)nc3c([nH]c4ccccc43)c2=O)cc1 -3.01%, CC(C)COC(=O)c1ccc(N)cc1 2.58%, Cc1ccc(OC(=O)CSc2nnc(-c3cccs3)o2)cc1C -5.54%, Cc1ccc(NC(=O)c2sc3nc[nH]c(=O)c3c2C)cc1Cl -16.2%, Cc1ccc(NC(=O)Cn2c(=O)oc3ccccc32)cc1C -4.51%, CCOc1ccc(N(CC(=O)Nc2ccccc2CC)S(=O)(=O)c2c(C)[nH]c(=O)[nH]c2=O)cc1 -4.86%, Cc1c(Cl)cccc1-n1ncc(C(=O)NCc2cccs2)c1C1CCN(C(=O)OC(C)(C)C)CC1 -9.07%, COC(=O)c1c(NC(=O)c2cc(OC)c(OC)c(OC)c2Br)sc2c1CCC(C)C2 (stereo not drawn) -0.342%, Cc1cccc(NC(=O)c2cc(S(=O)(=O)N3CCN(c4ccccc4F)CC3)ccc2F)c1C -24.5%, COc1ccc(CNC(=O)CCn2nc(C)c3c(C)n(-c4ccccc4)nc3c2=O)c(OC)c1 8.24%, CNC(=O)Cn1c(=O)c2cccn2c2ccc(F)cc21 -5.43%, O=C(CCNS(=O)(=O)c1cccc2nsnc12)NCc1ccccc1 22.3%, CC(C)CNc1ncnc2c1nnn2C -11.7%, COc1ccc(CNC(=O)c2ccc3nc(CCc4ccccc4)oc3c2)c(OC)c1 -7.23%, Cc1cc(C)cc(OCC(=O)Nc2cccc3cccnc23)c1 -1.48%, COC(=O)c1ccccc1NC(=O)[C@H]1O[C@@H]2OC(C)(C)O[C@@H]2[C@H]2OC(C)(C)O[C@H]21 -36.7%, O=C(c1ccc2c(c1)N(Cc1ccc(Cl)cc1)C(=O)c1ccccc1S2(=O)=O)N1CCCC1 -20.1%, CCOC(=O)c1ccc(N2C(=O)c3n[nH]c(-c4ccco4)c3C2c2ccc(C(=O)OC)cc2)cc1 (stereo not drawn) -1.98%, CC(=O)Nc1cccc(-c2nc(-c3ccccc3)no2)c1 -0.287%
